The campaign covered roughly 410,000 compounds. About 5,000 (1.2%) were called active. Inconclusive results, whose numbers are uncertain, are shown with a selection of clear calls. Calls come from the whole dose curve; as a rule, active = well fitted inhibition curve with a large enough effect; inconclusive = small, poorly fitted or top-dose-only effect; inactive = no such curve, though single readings can be large or run the other way. Potencies of inconclusive entries are doubtful fits and often do not repeat.
Experiment: qHTS for Inhibitors of TGF-b; note: nearly all actives have a fitted effect of over 65% in size
Conditions: HepG2 CAGA-GFP TGF-b/SMAD3 reporter, GFP fluorescence, 18 h, TGF-beta stimulated, 500 pg/mL final; series mostly up to 46.1 µM; activity, negative = inhibition: at the top concentration
Procedure, shortened: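 Using HEPG2 CAGA-GFP reporter cells at 1000 cells/well, we pinned test compounds, stimulated with recombinant TGF-beta (500 pg/mL final) and measured total well GFP after 18 h.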
% is set by controls: 0 for no effect and ±100 for the full control effect; potency is the fitted concentration of half-maximal effect; tags give direction and shape of the fitted curve.

SMILES | Potency | activity, negative = inhibition
COc1cc(C(O)c2nc(/C=C/c3ccccc3)cs2)ccc1F (stereo unspecified) | inconclusive: 35.5 µM [inhibitor, single point] | –
Cc1ccc(C(=O)NC2CCS(=O)(=O)C2)cc1S(=O)(=O)N1CCCCCC1 (stereo unspecified) | inconclusive: 4.47 µM [inhibitor, single point] | –
Cc1ccc(NC(=O)Cn2sc3ccccc3c2=O)cc1 | inconclusive: 22.4 µM [inhibitor, single point] | –
COc1ccccc1N(CC(=O)Nc1cc(C)on1)S(=O)(=O)c1ccc(Cl)cc1 | inconclusive: 14.1 µM [inhibitor, partial curve, poor fit] | –
O=S(=O)(c1cccc2nsnc12)N1CCN(Cc2ccccc2)CC1 | inconclusive: 1.12 µM [inhibitor, full curve] | –
CC(OC(=O)c1ccc(S(C)(=O)=O)c([N+](=O)[O-])c1)C(=O)NC1C2CC3CC(C2)CC1C3 (stereo unspecified) | active: 3.16 µM | –
CN(CC(=O)Nc1ccc(F)cc1)CC(=O)Nc1ccc(F)c(F)c1F | inconclusive: 35.5 µM [inhibitor, single point] | –
COc1ccccc1N(CC(O)CN(c1ccccc1)S(C)(=O)=O)S(=O)(=O)c1ccccc1 (stereo unspecified) | – | inactive: 7.4%
CN(CCc1ccccc1)C(=O)c1ccc(NC(=O)Cc2cccc(NC(=O)C3CCN(C(=O)C4CCCCC4)CC3)c2)cc1 | inconclusive: 35.5 µM [inhibitor, single point] | –
Cc1cc(C)cc(N2CC(C)Cn3c2nc2c3c(=O)[nH]c(=O)n2C)c1 (stereo unspecified) | inconclusive: 0.708 µM [inhibitor, full curve, poor fit] | –
Cc1[nH]c2ccccc2c1CN1CCC(CO)(Cc2ccccc2)CC1 | – | inactive: -14.3%
Cc1ccc(NC(=O)C/C(N)=N/O)cc1C | inconclusive: 35.5 µM [inhibitor, single point] | –
CCCN1CCN(CC2=C(C(=O)OCC)C(c3cccc(OC)c3OC)NC(=O)N2)CC1 (stereo unspecified) | – | inactive: -35.3%
COC(=O)c1c(-c2ccccc2)noc1-c1ccccc1 | inconclusive: 2.24 µM [inhibitor, full curve, poor fit] | –
CCC(C)N1CCC2(CC1)N=c1c(c3c4c5c(C)c(O)c3c(O)c1=NC(=O)C(C)=CC=C[C@H](C)[C@H](O)[C@@H](C)[C@@H](O)[C@@H](C)[C@H](OC(C)=O)[C@H](C)[C@@H](OC)C=CO[C@@](C)(O5)C4=O)N2 (stereo partly specified) | – | inactive: -12.3%
CCn1c(CSc2nc3ccccc3s2)nnc1SCC(=O)c1ccc(O)c(O)c1 | inconclusive: 22.4 µM [inhibitor, single point] | –
CCCN1CCN(C(=O)C(NC(=O)c2ccco2)C(C)C)CC1 (stereo unspecified) | inconclusive: 0.251 µM [inhibitor, full curve, poor fit] | –
Cc1ccc(CNC(=O)C(=O)NCC2OCCN2S(=O)(=O)c2ccc(Br)cc2)cc1 (stereo unspecified) | – | inactive: -13.5%
CCc1cccc(C)c1NC(=O)C(CC)Sc1nc2ccncc2[nH]1 (stereo unspecified) | inconclusive: 12.6 µM [inhibitor, partial curve] | –
COc1ccc(/C=c2\[nH]c(=O)/c(=C/c3ccc(OC)cc3)[nH]c2=O)cc1 | inconclusive: 3.55 µM [inhibitor, full curve, poor fit] | –
CC1=C(C(=O)Nc2cccc(C(=O)N3CCN(c4cccc(C(F)(F)F)c4)CC3)c2)SCCO1 | inconclusive: 25.1 µM [inhibitor, single point] | –

SMILES | Potency | activity, negative = inhibition
Cc1cc(C)cc(NC(=O)c2ccccc2CC[N+](=O)[O-])c1 | inconclusive: 15.8 µM [inhibitor, single point] | –
O=C(c1ccc(-c2ccccc2)cc1)N1CCN(c2ccc3c(c2)C2CC3CCN2C(=O)OCc2ccccc2)CC1 (stereo unspecified) | inconclusive: 7.94 µM [inhibitor, partial curve, poor fit] | –
Cn1ccc2c(-c3cccc4ccccc34)cc3c(c21)C1CCC3O1 (stereo unspecified) | inconclusive: 31.6 µM [inhibitor, single point] | –
CC(=O)N(CCOc1ccccc1)CCOc1ccccc1 | inconclusive: 35.5 µM [inhibitor, single point] | –
O=C(Cc1cccs1)Nc1ccccc1F | – | inactive: 1.57%
COc1ccc(C2CC(=O)c3cc(-c4nc(-c5cccc([N+](=O)[O-])c5)cs4)c(=O)n(-c4ccccc4C)c3C2)cc1 (stereo unspecified) | – | inactive: -7.26%
Cc1ccc2cc(CN(CCc3ccccc3)C(=S)NCCCN(C)C)c(=O)[nH]c2c1 | inconclusive: 25.1 µM [inhibitor, single point] | –
OC(COc1ccccc1)CN1CCOCC1 (stereo unspecified) | inconclusive: 4.47 µM [inhibitor, single point] | –
CCc1nc(-c2ccc(OC)c(OC)c2)cc2cc(OC)c(OC)cc12 | – | inactive: -0.892%
O=C(NCCc1ccc(Cl)cc1)c1ccc(NC2=NC3CS(=O)(=O)CC3S2)cc1 (stereo unspecified) | – | inactive: 18.8%
COc1ccc(NC(=O)c2ccc(CN3CCc4ccccc4C3)cc2)cc1OC | inconclusive: 7.08 µM [inhibitor, partial curve, poor fit] | –
COc1ccc(S(=O)(=O)N2CCC(C(N)=O)(N3CCCCC3)CC2)cc1OC | inconclusive: 22.4 µM [inhibitor, single point] | –
O=C1CCC(C(=O)N2CCCC2)CN1Cc1cccc(C(F)(F)F)c1 (stereo unspecified) | – | inactive: -28.1%
CC1CN=C(c2cccn2Cc2ccc(F)cc2Cl)O1 (stereo unspecified) | – | inactive: 1.51%
CCOc1ccc(C2NC(=S)NC3=C2CCc2ccccc23)cc1 (stereo unspecified) | inconclusive: 15.8 µM [inhibitor, partial curve, poor fit] | –
Cc1ccccc1Cc1c(C)nc2c(-c3ccccc3)c(C)[nH]n2c1=O | inconclusive: 3.16 µM [inhibitor, partial curve, poor fit] | –
CCCCCCCn1c(=N)n(CC(=O)c2ccco2)c2ccccc21 | inconclusive: 35.5 µM [inhibitor, single point] | –
O=C1OC(N2C(=O)CC[C@H]2C(=O)NCC2CCCO2)c2ccccc21 (stereo partly specified) | – | inactive: 1.05%
C#Cc1ccc([C@H]2C=C(C(=O)N3CCN(Cc4ccc5c(c4)OCO5)CC3)O[C@@H](OCC)[C@@H]2CCCO)cc1 | inconclusive: 0.282 µM [inhibitor, full curve, poor fit] | –
O=C(Nc1nc(-c2ccccn2)cs1)c1ccc(F)c(S(=O)(=O)N2CCOCC2)c1 | inconclusive: 4.47 µM [inhibitor, partial curve, poor fit] | –

— PubChem BioAssay AID588855 (National Center for Advancing Translational Sciences (NCATS), 2011)
